# Measured values published in PubChem BioAssay AID602313 (National Center for Advancing Translational Sciences (NCATS), 2012).
# About 760 (0.19%) of roughly 390,000 compounds were called active. About 3% were inconclusive and are not listed. Calls follow the shape of the dose curve; as a rule, active = well fitted inhibition curve with a large enough effect; inconclusive = small, poorly fitted or top-dose-only effect; inactive = flat fitted curve, though single readings scatter. The entries are a selection whose mix differs from that of the whole data set. Where a structure was tested more than once in an assay, its records may differ in their call.
# Assay: qHTS for Inhibitors of Vif-A3F Interactions: qHTS; also: nearly all actives have a fitted effect of over 65% in size; as to activity, negative = active: % of control where 0% means no effect
# Conditions: HeLa A3F-eYFP + Vif (tagged APOBEC3F with the HIV-1 protein that degrades it), YFP fluorescence increase; series mostly up to 46.1 µM; activity, negative = active: at the top concentration
# Text: The recent discovery and characterization of host restriction factors, which provide a potent defense to invading retroviruses, has provided new targets for antiviral drug development. APOBEC3G (A3G) and APOBEC3F (A3F) are potent cytidine deaminases that block HIV-1 replication; HIV-1 expresses the Vif protein, which counteracts A3G and A3F by binding to them and inducing their proteasomal degradation. The Vif-A3G and Vif-A3F interactions provide two potential targets for development of small molecules which can interfere with the ability of Vif to degrade A3G or A3F. […] To identify inhibitors that can interfere with Vif mediated degradation of A3G and A3F, we have developed Hela cell lines that stably express A3G or A3F tagged with eYFP at the C-terminal end (A3G-eYFP or A3F-eYFP, respectively) and Vif. In the absence of an inhibitor, Vif induces degradation of A3G-eYFP and A3F-eYFP, and the cells are not fluorescent. In the presence of an inhibitor, it is expected that Vif will be unable to degrade A3G-eYFP and/or A3F-eYFP, resulting in an increase in yellow fluorescence. In this assays Vif A3F was screened against the Molecular Library Small Molecule Repository (MLSMR). NIH Chemical Genomics Center [NCGC] NIH Molecular Libraries Probe Centers Network [MLPCN] MLPCN Grant: MH093245 Assay Submitter (PI): Vinay Pathak, National Cancer Institute
# 5 uL of 700 cells/well of A3F-YFP cells are dispensed into black, clear bottom plates. The plates are incubated overnight at 37 deg C. 23 nL of compounds are added by pintool. The plates are incubated overnight at 37 deg C and then read on the TTP Acumen (Ex 488/ Em 500-530).
# Potency is read from the fitted curve at half-maximal effect.
Compound,Potency,"activity, negative = active"
Nc1ccc(S(=O)(=O)O)cn1,inactive,
CCOc1ccc(NC(=O)CSc2nc3ccsc3c(=O)n2CCCCCC(=O)O)cc1,,inactive: -4.82%
O=C(C[C@H]1C/C=C\CC[C@H](Cc2ccc(F)cc2)C(=O)O[C@@H](c2ccccc2)CNC1=O)N[C@@H](CO)Cc1ccccc1,,inactive: -12.4%
CCOc1c(Cl)cc(CNCc2ccccn2)cc1OC,,inactive: 3.85%
COc1cc(CNc2ccc3[nH]c(=O)[nH]c3c2)cc(Br)c1OCc1ccccc1F,,inactive: -11.7%
CCOc1ccccc1C1CC(c2cccs2)=NN1S(C)(=O)=O (configuration not stated),active: 31.6 µM,
Cc1cccc(C(=O)NC(=S)N2CCc3ccccc3C2)c1,active: 8.91 µM,
C/C(=N/Nc1ccc([N+](=O)[O-])cc1)c1c[nH]c2ccccc12,active: 6.31 µM,
CCSc1nnc(-c2sc3nnc(-c4ccccc4)c(-c4ccccc4)c3c2N)o1,active: 12.6 µM,
CCC(=O)/C=C1\Sc2ccc(OC)cc2N1CCO,,inactive: -0.593%
Cc1nn(-c2ccccc2)c(C)c1C(=O)OC/C(O)=C(\C#N)c1nc2ccccc2[nH]1,,inactive: 0.993%
CCOC(=O)/C(=N/Nc1ccc(Br)cc1)N1CC(C)OC(C)C1 (configuration not stated),,inactive: -14.6%
Cc1ccccc1NC(=O)/C=C/c1ccc([N+](=O)[O-])s1,active: 10 µM,
O=C(C[C@H]1C/C=C\CC[C@@H](Cc2ccc(F)cc2)C(=O)O[C@@H](c2ccccc2)CNC1=O)N[C@@H](CO)Cc1ccccc1,,inactive: -4.08%
Cc1noc(C)c1NC(=O)N(C)C[C@H]1Oc2c(NC(=O)c3ccncc3)cccc2C(=O)N([C@H](C)CO)C[C@@H]1C,,inactive: -25.2%
S=C(NC1CCCCC1)N(CCc1ccccc1)CCc1ccccc1,active: 7.08 µM,
Cc1ccc(NC(=O)C(Cc2ccccc2)n2cccc2)cc1 (configuration not stated),,inactive: 0.361%
CN(/C=C/C(=C\C=[N+](C)c1ccccc1)OCCCS(=O)(=O)[O-])c1ccccc1,,inactive: -21.3%
Cc1ccc(S(=O)(=O)NCCc2nnc3ccc(SCc4cccnc4)nn23)cc1,,inactive: 32.3%
CN(C)c1ccc2nc3c(=O)[nH]c(=O)nc-3n(CC(O)C(O)C(O)CO)c2c1 (configuration not stated),active: 8.91 µM,
CCN(CC)C(=O)C1c2ccccc2Oc2ccccc21,,inactive: 30.7%
Clc1ccccc1C1CC(c2ccccc2)=Nc2ccccc2N1 (configuration not stated),active: 20 µM,
COc1ccc(NC(=O)c2ccco2)cc1NC(=O)c1c(OC)cccc1OC,,inactive: 3.06%
COc1ccccc1/C=C/C=N/n1c(-c2ccc(Cl)cc2)n[nH]c1=S,,inactive: -6.76%

Compound,Potency,"activity, negative = active"
CCC(C)Sc1ccc([C@@H]2[C@@H]3C(=O)N(CC)C(=O)[C@@H]3[C@]3(C(=O)OC)CCCCN23)cc1 (some centres not stated),,inactive: -24.9%
CC(C)(C)c1ccc(S(=O)(=O)N(CCCN2CCOCC2)Cc2cccs2)cc1,,inactive: -12.1%
Cc1c(C(=O)N(Cc2ccc(N(C)C)cc2)C2CCS(=O)(=O)C2)oc2ccccc12 (configuration not stated),,inactive: 2.4%
Oc1cc2c(cc1O)[C@H]1c3ccc(O)c(O)c3OC[C@@]1(O)C2,,inactive: -20.9%
CCCNC(=O)Cn1c(=O)/c(=C\c2ccc(-c3cccc([N+](=O)[O-])c3)o2)s/c1=C\C(=O)C(C)(C)C,,inactive: -7.88%
COc1ccc(-c2ccnc3[nH]n(-c4ccccc4)c(=O)c23)cc1,,inactive: -4.53%
CC(=O)C1=C(C)NC(SCC(=O)c2ccc(Cl)cc2)=C(C#N)C1c1ccco1 (configuration not stated),active: 25.1 µM,
CCCN(CCC)CCNC(=O)c1cc2c(-c3ccc(Cl)cc3)nn(C)c2s1,,inactive: 0.565%
CCCCC(=O)N(CCOC)c1nnc(-c2ccccc2C)s1,,inactive: 30.5%
COc1cc(/C=C2\SC(=S)N(CC(=O)O)C2=O)ccc1OC(=O)c1ccco1,,inactive: -36.2%
CCN=c1scc(-c2ccc3c(c2)NC(=O)CO3)n1N=C1CCCC1,,inactive: -2.62%
C=CC[C@@H](CC(=O)N[C@H](CO)Cc1ccccc1)C(=O)N[C@@H](COC(=O)[C@@H](CC=C)CC(=O)OC(C)(C)C)Cc1ccccc1,,inactive: 9.22%
CCN(CC)C(=O)Cn1c(=O)n(-c2ccccc2)c(=O)c2c3c(sc21)CCC3,,inactive: 6.02%
Nc1c2ccccc2nc2ccccc12,,inactive: -2.71%
Cc1ccc(-c2nc3ncccn3c2Nc2ccc3c(c2)OCCO3)cc1,,inactive: 5.37%
O=C(Nc1ccc(Oc2ccc(NC(=O)Nc3ccccc3Cl)cc2)cc1)Nc1ccccc1Cl,active: 11.2 µM,
CC(=O)NCCNC(=O)c1ccc(CSc2ccc(Cl)cc2)cc1,,inactive: 27.9%
CCc1ccc(NC(=O)Cn2c(=O)c3cccn3c3ccccc32)cc1,,inactive: -21.6%
Cc1ccc(-c2ccc(/C=N/NC(N)=S)o2)cc1,active: 5.62 µM,
N#C/C(=C\c1ccc(N2CCOCC2)o1)C(=O)N1CCOCC1,,inactive: -24.5%
COC(=O)C1=CO[C@@H](C)[C@H]2CN3CCc4c([nH]c5ccccc45)[C@@H]3C[C@H]12,,inactive: -0.534%
CC1=NN(c2ccccc2)C(=O)/C1=C\C=C\c1ccccc1,,inactive: 0.397%
CCc1ccc2oc(C(=O)NCC(c3ccc(OC)cc3)N3CCCCC3)c(C)c2c1 (configuration not stated),,inactive: -12.1%
